# Data taken from PubChem BioAssay (NCATS).
# Inconclusive means that the source gave no clear call. Such entries were picked first, then a sample of the others. For part of these data: Potencies of inconclusive entries are left out as doubtful fits. Active and inactive are the calls of the source. Unless noted, the call rests on the fitted dose curve; in most records, active means well fitted curve in the direction sought with a large enough effect; inconclusive means small, poorly fitted or top-dose-only effect, or another doubt; inactive means no such curve, though single readings can be large; an effect the other way counts as inactive or inconclusive.
# Key:
# [1] = target: Rap guanine nucleotide exchange factor 3 (Homo sapiens) (UniProt O95398); test: Confirmatory qHTS for antagonist of cAMP-regulated guanine nucleotide exchange factor 3 (EPAC1) (AID 1645880); conditions: EPAC1 Rap1B-BODIPY-GDP exchange, fluorescence; activity, negative = inhibition: at 115 µM (top of the series); further: nearly all actives have a fitted effect of over 55% in size; further: potency means the concentration at half of the fitted maximal effect;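 on activity, negative = inhibition: plate controls were DMSO only for no effect and full effect of the ATA control for full effect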
# UniProt O95398, sequence (O95398 whole entry, looked up): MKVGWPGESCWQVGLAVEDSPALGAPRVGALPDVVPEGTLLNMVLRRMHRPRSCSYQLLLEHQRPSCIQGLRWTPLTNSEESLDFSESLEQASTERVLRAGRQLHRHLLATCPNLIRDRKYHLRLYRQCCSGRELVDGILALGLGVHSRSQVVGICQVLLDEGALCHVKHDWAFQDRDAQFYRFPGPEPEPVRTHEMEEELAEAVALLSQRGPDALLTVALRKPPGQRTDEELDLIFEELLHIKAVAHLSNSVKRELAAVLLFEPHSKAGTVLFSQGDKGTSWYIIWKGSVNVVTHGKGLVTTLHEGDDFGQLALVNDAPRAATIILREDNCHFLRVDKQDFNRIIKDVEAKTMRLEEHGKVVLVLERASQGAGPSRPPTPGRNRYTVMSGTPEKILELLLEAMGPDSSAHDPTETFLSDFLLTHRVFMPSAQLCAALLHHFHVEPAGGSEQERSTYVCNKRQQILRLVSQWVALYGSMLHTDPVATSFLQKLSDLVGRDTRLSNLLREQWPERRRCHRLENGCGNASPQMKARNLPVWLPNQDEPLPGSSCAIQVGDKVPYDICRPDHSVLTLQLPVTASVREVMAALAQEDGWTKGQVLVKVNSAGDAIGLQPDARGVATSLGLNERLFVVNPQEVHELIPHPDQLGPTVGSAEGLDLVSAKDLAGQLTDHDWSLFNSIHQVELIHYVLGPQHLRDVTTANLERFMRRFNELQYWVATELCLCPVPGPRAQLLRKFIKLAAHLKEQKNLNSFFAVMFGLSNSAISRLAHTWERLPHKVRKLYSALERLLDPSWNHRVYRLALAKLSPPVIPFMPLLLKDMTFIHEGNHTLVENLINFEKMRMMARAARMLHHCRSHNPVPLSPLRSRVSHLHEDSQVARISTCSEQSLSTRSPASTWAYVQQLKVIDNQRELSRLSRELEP
# How it was run: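 Nucleotide exchange uses 100 nM EPAC1, 250 nM RAP1B-BODIPY-GDP and 50 uM GDP, with compounds in a concentration-titration series. After 5 min at room temperature, fluorescence (480 nm ex/540 nm em) is read every 5 min for 30 min. Data are normalized to control ATA and DMSO.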
# [2] = target: Rap guanine nucleotide exchange factor 3 (Homo sapiens) (UniProt O95398); test: Confirmatory qHTS for agonist of cAMP-regulated guanine nucleotide exchange factor 3 (EPAC1) (AID 1645881); conditions: EPAC1 Rap1B BODIPY-GDP exchange fluorescence; activation: at 154 µM (top of the series), 100% = cAMP control response; further: nearly all actives have a fitted effect of over 75% in size; further: potency means the concentration at half of the fitted maximal effect;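 on activation: EPAC1 catalysed release of BODIPY-GDP from Rap1B seen as fluorescence loss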
# [3] = target: Rap guanine nucleotide exchange factor 4 (Homo sapiens) (UniProt Q8WZA2); test: Confirmatory qHTS for agonist of cAMP-regulated guanine nucleotide exchange factor 4 (EPAC2) (AID 1645884); conditions: EPAC2 GEF activity, Rap1B-BODIPY-GDP fluorescence; activation: at 154 µM (top of the series), percent relative to cAMP agonist control;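 further: nucleotide exchange releases bodipy-GDP from Rap1 and this lowers its fluorescence; nearly all actives have a fitted effect of over 65% in size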; further: potency means the concentration at half of the fitted maximal effect; on activation: on the % scale 0 is the no-effect control and ±100 the full control effect
# UniProt Q8WZA2, sequence (Q8WZA2 whole entry, looked up): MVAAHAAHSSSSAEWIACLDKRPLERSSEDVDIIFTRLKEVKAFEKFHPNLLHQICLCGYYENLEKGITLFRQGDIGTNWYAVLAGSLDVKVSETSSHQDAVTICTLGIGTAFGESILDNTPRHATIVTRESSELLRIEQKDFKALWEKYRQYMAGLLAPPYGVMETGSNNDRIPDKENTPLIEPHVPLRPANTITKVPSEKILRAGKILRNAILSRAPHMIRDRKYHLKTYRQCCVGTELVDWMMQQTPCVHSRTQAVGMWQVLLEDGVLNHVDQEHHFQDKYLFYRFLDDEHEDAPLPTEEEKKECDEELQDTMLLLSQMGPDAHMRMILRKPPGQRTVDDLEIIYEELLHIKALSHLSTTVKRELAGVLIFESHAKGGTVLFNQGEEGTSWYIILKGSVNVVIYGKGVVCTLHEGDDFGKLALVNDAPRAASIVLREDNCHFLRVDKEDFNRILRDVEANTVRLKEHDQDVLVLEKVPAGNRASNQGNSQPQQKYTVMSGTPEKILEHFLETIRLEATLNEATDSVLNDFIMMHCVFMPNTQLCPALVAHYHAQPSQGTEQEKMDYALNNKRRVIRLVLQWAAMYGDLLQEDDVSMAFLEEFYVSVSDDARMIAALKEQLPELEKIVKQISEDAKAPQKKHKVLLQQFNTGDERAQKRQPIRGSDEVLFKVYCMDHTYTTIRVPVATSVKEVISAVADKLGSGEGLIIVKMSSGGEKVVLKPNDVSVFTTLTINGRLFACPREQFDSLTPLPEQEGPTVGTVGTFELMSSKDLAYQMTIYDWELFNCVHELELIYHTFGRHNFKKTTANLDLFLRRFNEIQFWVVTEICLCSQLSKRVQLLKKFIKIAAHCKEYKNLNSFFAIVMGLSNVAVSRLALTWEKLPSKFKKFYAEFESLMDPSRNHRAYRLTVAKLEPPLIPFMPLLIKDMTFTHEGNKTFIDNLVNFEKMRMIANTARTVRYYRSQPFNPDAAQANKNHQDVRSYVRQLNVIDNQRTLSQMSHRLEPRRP
# [4] = target: Rap guanine nucleotide exchange factor 3 (Homo sapiens) (UniProt O95398); test: Counterscreen qHTS for agonist of cAMP-regulated guanine nucleotide exchange factor 3 (EPAC1) (AID 1645889); conditions: EPAC1 Rap1B-BODIPY-GDP exchange, fluorescence; activation: at 154 µM (top of the series) unless noted; further: nearly all actives have a fitted effect of over 40% in size; further: potency means the concentration at half of the fitted maximal effect; on activation: % of control where 0% means no effect
# How it was run: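 Rap1B–BODIPY-GDP (250 nM) with 50 uM GDP; compounds pin-transferred to 9.74 nM–152 uM final (activator) or from 7.32 nM upwards (inhibitor). Fluorescence Ex/Em 480/540 nm read at 5 and 30 min, then after adding cAMP or buffer, at room temperature.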
# [5] = target: Tyrosyl-DNA phosphodiesterase 1 (Homo sapiens) (UniProt Q9NUW8); test: Confirmation Assay for Inhibitors of Tyrosyl-DNA Phosphodiesterase (TDP1) (AID 489007); conditions: recombinant human TDP1 enzymatic activity, dose-response; further: potency means the concentration at half of the fitted maximal effect; nearly all actives have a fitted effect of over 40% in size
# UniProt Q9NUW8, sequence (Q9NUW8 whole entry, looked up): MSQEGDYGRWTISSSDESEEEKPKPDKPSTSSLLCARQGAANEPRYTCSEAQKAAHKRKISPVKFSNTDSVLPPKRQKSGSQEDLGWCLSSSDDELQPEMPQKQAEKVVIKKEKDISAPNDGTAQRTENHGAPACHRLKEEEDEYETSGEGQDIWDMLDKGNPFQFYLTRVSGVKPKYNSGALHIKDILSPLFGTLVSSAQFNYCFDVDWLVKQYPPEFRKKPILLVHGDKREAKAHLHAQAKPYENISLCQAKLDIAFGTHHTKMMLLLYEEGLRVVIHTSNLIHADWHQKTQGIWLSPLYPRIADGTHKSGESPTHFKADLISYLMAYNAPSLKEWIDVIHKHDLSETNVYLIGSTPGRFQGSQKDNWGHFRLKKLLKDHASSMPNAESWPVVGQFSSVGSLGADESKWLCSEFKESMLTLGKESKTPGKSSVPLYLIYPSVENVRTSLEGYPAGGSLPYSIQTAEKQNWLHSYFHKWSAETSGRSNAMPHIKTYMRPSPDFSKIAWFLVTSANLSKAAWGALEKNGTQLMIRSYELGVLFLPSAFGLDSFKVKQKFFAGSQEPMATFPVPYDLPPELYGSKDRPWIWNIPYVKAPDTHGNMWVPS
# How it was run: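 Tdp1 1 nM + cpd, 15 min RT; add biotin/phosphotyrosine-FITC oligo 15 nM, 5 min RT; add AS donor/acceptor beads 10 ug/ml, 10 min RT; read AlphaScreen. No-enzyme wells = max signal.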
# [6] = target: DNA polymerase iota (Homo sapiens) (UniProt Q9UNA4); test: qHTS for Inhibitors of Polymerase Iota: Confirmatory Assay for Cherry-picked Compounds (AID 720496); conditions: Pol iota primer extension, TAMRA/BHQ fluorescence; further: potency means the concentration at half of the fitted maximal effect
# How it was run: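 Recombinant human Pol iota (10 nM) was preincubated with compound for 15 min at room temperature, then 50 nM final primer/template substrate was added; the substrate carried a TAMRA-labeled reporter strand and a BHQ-2-quenched template. Fluorescence was read at 0 and 10 min.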
# [7] = target: DNA repair nuclease/redox regulator APEX1 (Homo sapiens) (UniProt P27695); test: Confirmation qHTS Assay for Inhibitors of the Human Apurinic/apyrimidinic Endonuclease 1 (APE1) (AID 2572);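 further: fluorescence gain from purified APE1 cutting a TAMRA/BHQ-2 THF abasic duplex; on the % scale 0 is the no-effect control and ±100 the full control effect; nearly all actives have a fitted effect of over 30% in size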
# UniProt P27695, sequence (P27695 whole entry, looked up): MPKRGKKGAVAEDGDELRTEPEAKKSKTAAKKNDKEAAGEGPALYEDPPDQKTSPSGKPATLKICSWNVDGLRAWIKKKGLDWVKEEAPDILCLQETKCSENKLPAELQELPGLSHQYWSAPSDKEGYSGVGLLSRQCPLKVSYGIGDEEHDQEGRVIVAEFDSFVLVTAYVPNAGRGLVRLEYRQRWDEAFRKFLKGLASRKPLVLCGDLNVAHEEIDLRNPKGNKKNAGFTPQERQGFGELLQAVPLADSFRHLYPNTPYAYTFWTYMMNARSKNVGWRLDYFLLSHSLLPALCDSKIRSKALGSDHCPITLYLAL
# How it was run: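 Enzyme preincubated 15 min at room temperature with compound; reaction started with 50 nM final double-stranded THF abasic-site substrate (5'-TAMRA, 3'-BHQ-2). Fluorescence read kinetically (525/598 nm); third-minus-first read difference gives reaction progress.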
# [8] = AP1 Signaling Pathway (AID 357; active means well fitted curve in either direction with a large enough effect, not every such curve was filed as active; inconclusive means small, poorly fitted or top-dose-only effect, or another doubt;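 further: ME-180 reporter cells stimulated with EGF at its EC50 level; top concentration of the series differs between compounds; on the % scale 0 is the no-effect control and ±100 the full control effect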); conditions: ME-180 (cervical carcinoma) AP-1-bla reporter, EGF-induced, beta-lactamase ratio, 5 h; at 7.69 µM (top of the series) unless noted
# How it was run: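 Read-out was the 460nm/530nm emission ratio (excitation 405nm) after CCF4 loading for 2.5 hours at room temperature. Cells carried an AP-1-driven beta-lactamase reporter, were stimulated with EC50 EGF plus compound for 5 hours, and AC50 values came from titrations.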
# [9] = target: 3',5'-cyclic-AMP phosphodiesterase 4B (Homo sapiens) (UniProt Q07343); test: qHTS Assay for Inhibitors of PDE-IV (AID 607; active means well fitted activation curve with a large enough effect in the main read-out, with a control signal flat, not every such curve was filed as active; inconclusive means small, poorly fitted or top-dose-only effect, or effect the other way, or a change in a side signal; further: potency means the concentration at half of the fitted maximal effect); conditions: HEK293 ACTOne CNG channel cells, membrane potential fluorescence; activation (PDE inhibition): at 22.9 µM (top of the series)
# How it was run: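 ACTOne HEK293 cells carry a modified cAMP-gated CNG channel and express endogenous PDE4; plated 1000 cells/well, compounds up to 22.9 uM final. Membrane-potential dye fluorescence (ex 535/em 590) was read; parental cells received 10 uM forskolin + 100 uM RO 20-1724.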
# [10] = target: Cytochrome P450 2D6 (Homo sapiens) (UniProt P10635); test: qHTS Assay for Inhibitors and Substrates of Cytochrome P450 2D6 (AID 891);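 further: luciferin methyl ether substrate demethylated by CYP2D6 with NADPH regeneration; potency means the concentration at half of the fitted maximal effect; nearly all actives have a fitted effect of over 60% in size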
# How it was run: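 Human CYP2D6 (5 nM) with 30 uM Luciferin-ME EGE (at Km) in 100 mM KPO4, compound preincubated 10 min, then NADPH regeneration system for 60 min at room temperature. Luciferin read by luminescence; normalized to 1.43 uM quinidine.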
# [11] = target: Dual specificity protein kinase CLK4 (Homo sapiens) (UniProt Q9HAZ1); test: qHTS Assay for Inhibitors of CDC-like Kinase 4 (Kinase-Glo Assay) (AID 1770); further: potency means the concentration at half of the fitted maximal effect; nearly all actives have a fitted effect of over 65% in size
# UniProt Q9HAZ1, sequence (Q9HAZ1 whole entry, looked up): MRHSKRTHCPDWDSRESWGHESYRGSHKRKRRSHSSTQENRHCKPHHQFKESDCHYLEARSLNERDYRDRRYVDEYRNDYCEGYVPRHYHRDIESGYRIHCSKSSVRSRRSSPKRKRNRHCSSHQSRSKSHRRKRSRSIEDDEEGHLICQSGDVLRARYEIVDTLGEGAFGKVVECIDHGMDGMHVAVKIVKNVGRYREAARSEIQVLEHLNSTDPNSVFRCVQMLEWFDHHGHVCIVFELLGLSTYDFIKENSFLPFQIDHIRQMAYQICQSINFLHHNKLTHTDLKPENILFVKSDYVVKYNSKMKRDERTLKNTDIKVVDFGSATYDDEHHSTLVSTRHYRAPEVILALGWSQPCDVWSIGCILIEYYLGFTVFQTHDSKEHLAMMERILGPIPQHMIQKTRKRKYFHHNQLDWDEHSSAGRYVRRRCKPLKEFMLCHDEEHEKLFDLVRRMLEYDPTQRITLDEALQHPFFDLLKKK
# How it was run: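 Recombinant human Clk4 (25 nM) phosphorylated RS repeat peptide (100 uM) with 1 uM ATP in Tris pH 7.5/MgCl2/EGTA/DTT/Triton buffer for 4.5 h at room temperature. Residual ATP was quantified by Kinase-Glo luciferase luminescence.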
# [12] = target: Dual specificity protein kinase CLK4 (Homo sapiens) (UniProt Q9HAZ1); test: qHTS Assay for Inhibitors of CDC-like Kinase 4 (ADP-Glo Assay) (AID 1771); further: potency means the concentration at half of the fitted maximal effect; nearly all actives have a fitted effect of over 70% in size
# How it was run: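 Luminescence from ADP-Glo reports ADP produced by 25 nM Clk4 acting on 100 uM RS repeat peptide with 1 uM ATP over 1 hr at room temperature; residual ATP is depleted before ADP is converted to ATP for detection.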
# [13] = target: Dual specificity protein kinase CLK4 (Homo sapiens) (UniProt Q9HAZ1); test: qHTS Assay for Inhibitors of CDC-like Kinase 4 (ADP-FP Assay) (AID 1795); further: potency means the concentration at half of the fitted maximal effect; nearly all actives have a fitted effect of over 60% in size
# How it was run: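 Recombinant human Clk4 (6.25 nM) phosphorylated RS repeat peptide (100 uM) with 1 uM ATP in Tris pH 7.5/MgCl2/EGTA/DTT/Triton buffer for one hour. ADP was quantified by Transcreener competitive fluorescence polarization against an ADP calibration curve.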
# [14] = NFAT Signaling Pathway (AID 444; active means well fitted curve in either direction with a large enough effect, not every such curve was filed as active; inconclusive means small, poorly fitted or top-dose-only effect, or another doubt;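 further: carbachol stimulus at about its EC50 of 1 µM final; on the % scale 0 is the no-effect control and ±100 the full control effect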); conditions: Jurkat NFAT-bla M1, carbachol, beta-lactamase ratio, 5 h; at 7.69 µM (top of the series) unless noted
# How it was run: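 Jurkat cells with NFAT-driven β-lactamase reporter and co-expressed M1 receptor, stimulated with carbachol (final 1 uM, ~EC50), compound titration, 5 h at 37 °C. CCF4 loaded 1 h at RT; 460/530 nm ratio gave %activity and AC50.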
# [15] = target: Ubiquitin carboxyl-terminal hydrolase 1 (Homo sapiens) (UniProt O94782); test: Inhibitors of USP1/UAF1: Pilot qHTS (AID 504865);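 further: rhodamine fluorescence freed from ubiquitin-rhodamine substrate followed over time; potency means the concentration at half of the fitted maximal effect; nearly all actives have a fitted effect of over 35% in size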
# How it was run: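 USP1/UAF1 complex (1nM) preincubated with compound 15 min at room temperature, then Ub-Rho substrate (150nM final) added. Fluorescence read kinetically at 480/540 nm, 6 reads every 60 seconds. Buffer: 50mM HEPES pH 7.8, 0.5mM EDTA, 0.1 mg/ml BSA, 1mM TCEP, 0.01% Tween-20.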
# [16] = target: Bifunctional 3'-5' exonuclease/ATP-dependent helicase WRN (Homo sapiens) (UniProt Q14191); test: qHTS for Inhibitors of WRN Helicase: Confirmatory Assay for Cherry-picked Compounds. (AID 720497); further: potency means the concentration at half of the fitted maximal effect; nearly all actives have a fitted effect of over 65% in size
# UniProt Q14191, sequence (Q14191 whole entry, looked up): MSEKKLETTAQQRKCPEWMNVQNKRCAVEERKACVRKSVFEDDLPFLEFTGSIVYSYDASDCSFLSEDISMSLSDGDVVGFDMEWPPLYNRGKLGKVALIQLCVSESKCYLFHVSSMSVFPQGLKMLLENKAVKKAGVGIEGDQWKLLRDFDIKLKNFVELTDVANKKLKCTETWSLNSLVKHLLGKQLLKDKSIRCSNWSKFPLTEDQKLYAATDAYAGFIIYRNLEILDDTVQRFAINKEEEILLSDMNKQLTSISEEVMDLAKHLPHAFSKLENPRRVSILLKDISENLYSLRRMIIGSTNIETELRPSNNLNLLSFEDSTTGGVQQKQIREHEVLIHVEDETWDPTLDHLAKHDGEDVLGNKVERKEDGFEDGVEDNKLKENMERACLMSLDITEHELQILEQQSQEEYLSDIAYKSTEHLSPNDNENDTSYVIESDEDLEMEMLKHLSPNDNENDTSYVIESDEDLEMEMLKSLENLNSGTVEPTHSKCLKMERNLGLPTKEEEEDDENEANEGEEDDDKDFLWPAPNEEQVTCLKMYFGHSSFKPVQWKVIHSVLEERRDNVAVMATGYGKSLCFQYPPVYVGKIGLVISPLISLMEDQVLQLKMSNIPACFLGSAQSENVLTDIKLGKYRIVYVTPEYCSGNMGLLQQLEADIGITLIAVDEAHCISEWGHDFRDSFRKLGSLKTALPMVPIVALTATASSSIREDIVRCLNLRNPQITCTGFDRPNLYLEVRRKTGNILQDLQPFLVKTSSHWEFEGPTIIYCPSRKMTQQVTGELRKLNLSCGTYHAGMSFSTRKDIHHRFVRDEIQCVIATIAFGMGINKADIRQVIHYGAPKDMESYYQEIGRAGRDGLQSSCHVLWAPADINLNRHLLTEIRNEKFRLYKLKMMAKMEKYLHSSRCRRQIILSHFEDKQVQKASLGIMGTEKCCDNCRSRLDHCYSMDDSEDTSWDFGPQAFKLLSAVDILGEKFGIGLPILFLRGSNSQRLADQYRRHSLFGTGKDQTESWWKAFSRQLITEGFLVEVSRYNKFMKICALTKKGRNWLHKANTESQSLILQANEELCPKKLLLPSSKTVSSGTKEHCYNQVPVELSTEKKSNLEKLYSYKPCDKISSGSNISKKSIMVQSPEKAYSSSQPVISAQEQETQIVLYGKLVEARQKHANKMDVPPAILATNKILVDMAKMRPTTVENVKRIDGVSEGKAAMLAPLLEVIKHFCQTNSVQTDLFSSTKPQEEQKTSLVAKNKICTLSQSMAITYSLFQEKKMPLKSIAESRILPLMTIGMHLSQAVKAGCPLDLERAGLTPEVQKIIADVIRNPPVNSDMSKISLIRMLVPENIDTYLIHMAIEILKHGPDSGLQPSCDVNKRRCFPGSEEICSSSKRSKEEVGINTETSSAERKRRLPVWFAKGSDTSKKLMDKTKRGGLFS
# How it was run: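 WRN at 20 nM final was preincubated with compound for 15 min at room temperature; the reaction was started with 100 nM forked duplex oligonucleotide and 2 mM ATP (final). Red fluorescence (ex 525/em 598 nm) was read kinetically, with inhibition normalized to enzyme-only and buffer-only wells.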
# [17] = qHTS for Inhibitors of WRN Helicase: Thiazole Orange DNA Binding Counterscreen (AID 720499);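 further: drop in dye fluorescence marks compound binding to DNA; potency means the concentration at half of the fitted maximal effect; nearly all actives have a fitted effect of over 60% in size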
# How it was run: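 Compounds were pin-transferred into 50 nM unlabeled DNA premixed with 100 nM thiazole orange. After 15 min at room temperature, fluorescence (ex 480 nm, em 530 nm) was read; loss of signal flags dye displacement from nonspecific DNA binders.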
# [18] = target: DNA polymerase kappa (Homo sapiens) (UniProt Q9UBT6); test: qHTS for Inhibitors of Polymerase Kappa: Confirmatory Assay for Cherry-picked Compounds (AID 720501); conditions: purified Pol-kappa, fluorescent strand-displacement substrate; further: potency means the concentration at half of the fitted maximal effect
# How it was run: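 10 nM human Pol-kappa was preincubated with compound 15 min at room temperature, then 50 nM (final) primer/template substrate with TAMRA-labeled reporter strand and BHQ-2-labeled template added. Fluorescence (Ex 525, Em 598 nm) read at 0 and 10 min.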
# Tags describe the fitted curve by direction and shape.
smiles,measurement,setting,value
COc1ccc(C(=O)Nc2nc(-c3ccc([N+](=O)[O-])cc3)c(-c3ccc(OC)cc3)s2)cc1,Potency,[1],inactive
same,Potency,[2],"inconclusive [activator, single point]"
same,Potency,[3],"inconclusive [activator, single point]"
same,Potency,[4],active: 63.1 µM
COC(=O)c1ccc(COc2ccc(/C=C(\C#N)c3nc4ccccc4[nH]3)cc2OC)o1,Potency,[1],"inconclusive [inhibitor, partial curve]"
same,Potency,[2],"inconclusive [activator, partial curve, poor fit]"
same,Potency,[3],"inconclusive [activator, partial curve]"
same,activation,[4],inconclusive: 50.9% [activator]
O=C1/C(=C\c2cc(Cl)c(O)c(Cl)c2)SC(=S)N1Cc1ccccc1,Potency,[1],inactive
same,Potency,[2],"inconclusive [activator, single point]"
same,Potency,[3],"inconclusive [activator, single point]"
same,Potency,[4],"inconclusive [activator, full curve]"
Cc1c2ccccc2nc2c(F)c(NC(C)C)c(F)c(F)c12,Potency,[1],"inconclusive [inhibitor, partial curve]"
same,Potency,[2],inactive
same,Potency,[3],inactive
same,activation,[4],inconclusive: 20.6% [activator]
O=C(O)c1ccc(Nc2nc(-c3cc4ccccc4oc3=O)cs2)cc1O,Potency,[5],active: 63.1 µM
same,Potency,[6],"inconclusive [inhibitor, single point]"
same,Potency,[1],"inconclusive [inhibitor, full curve]"
same,Potency,[2],"inconclusive [activator, partial curve, poor fit]"
same,Potency,[3],inactive
same,Potency,[4],"inconclusive [activator, full curve]"
Fc1ccc(N2N=C(c3cccs3)CC2c2ccccc2)cc1 (stereo not given),Potency,[7],inactive
same,Potency,[5],active: 28.2 µM
same,Potency,[1],inactive
same,Potency,[2],inactive
same,Potency,[3],inactive
same,Potency,[4],"inconclusive [activator, full curve, poor fit]"
CCOC(=O)c1sc2nc3c(SCC(=O)O)cc(C(=O)c4cc(F)ccc4O)cn3c(=O)c2c1C,Potency,[1],active: 9.53 µM
same,Potency,[2],"inconclusive [activator, partial curve]"
same,Potency,[3],inactive
same,Potency,[4],inactive
O=c1oc2c(O)cccc2cc1-c1nc2ccccc2[nH]1,Potency,[1],"inconclusive [inhibitor, partial curve, poor fit]"
same,Potency,[2],"inconclusive [activator, single point]"
same,Potency,[3],"inconclusive [activator, single point]"
same,Potency,[4],"inconclusive [activator, single point]"
c1ccc(-c2cnn3c(-c4ccccc4)c(-c4ccccc4)nc3n2)cc1,Potency,[1],inactive
same,Potency,[2],"inconclusive [activator, partial curve]"
same,Potency,[3],"inconclusive [activator, full curve, poor fit]"
same,Potency,[4],"inconclusive [activator, partial curve]"
CN(C(=O)c1cc2c(cc1Br)OCO2)c1cccc2ccccc12,Potency,[1],inactive
same,Potency,[2],"inconclusive [activator, partial curve, poor fit]"
same,Potency,[3],"inconclusive [activator, single point]"
same,activation,[4],inconclusive: 47.7% [activator]
c1csc(CNc2ccnc(-c3ccc4c(c3)OCO4)n2)c1,"activity change, negative = inhibition",[8],inconclusive: -30.6% [inhibitor]
same,Potency,[9],"inconclusive [activator, partial curve]"
same,Potency,[10],active: 0.501 µM
same,Potency,[11],"inconclusive [falling, single point]"
same,Potency,[12],active: 22.4 µM
same,Potency,[13],"inconclusive [falling, partial curve]"
COc1ccccc1CNc1nc(-c2cccc(C#N)c2)nc2ccccc12,"activity change, negative = inhibition",[8],inconclusive: 33.2% [activator]
same,"activity change, negative = inhibition",[14],inconclusive: -31.3% [inhibitor]
same,Potency,[9],"inconclusive [activator, partial curve]"
same,Potency,[11],"inconclusive [falling, partial curve]"
same,Potency,[12],"inconclusive [falling, partial curve]"
same,Potency,[15],"inconclusive [inhibitor, partial curve, poor fit]"
COc1cccc(/C=N/NC(=O)c2[nH]nc3c2CCc2ccccc2-3)c1O,Potency,[16],active: 21.5 µM
Cc1ccc(-c2csc(NC(=O)/C=C/c3ccco3)c2C(=O)O)cc1,Potency,[16],"inconclusive [inhibitor, partial curve]"
O=C(N/N=C/c1ccc(OC(=O)c2ccccc2Cl)cc1)c1cc(O)cc(O)c1,Potency,[17],active: 24.1 µM
O/C=c1\ccc2cccc3nc(C(F)(F)F)nc1c23,Potency,[18],"inconclusive [inhibitor, partial curve, poor fit]"
